From the supplement of paper PMC6828730
Structures can show the parent of a compound that is named as a salt. The list shows a part of the results. Repeats are few or missing, and single values can be far off.

Columns and labels:
[1] = test system: hiPSC-derived cardiomyocytes; assay: time to death of most cells in well after compound addition (days); higher = less cardiotoxic; conditions: screen: 1; 10 µM
[2] = test system: hiPSC-derived cardiomyocytes; assay: time to death of most cells in well after compound addition (days); higher = less cardiotoxic; extreme values may be limits of the assay; conditions: 10 µM

SMILES | time to death of most cells in well [1] | time to death of most cells in well ([2]; screen: 2) | time to death of most cells in well ([2]; screen: 3) | time to death of most cells in well ([2]; screen: 4)
C[C@@H](N)[C@H]1CC[C@H](C(=O)Nc2ccncc2)CC1 | > 7 | > 7 | > 7 | > 7
Cc1cc(Nc2cc(CN3CCOCC3)c3nc(C)c(Cc4ccc(Cl)cc4F)n3n2)n[nH]1 | > 7 | > 7 | > 7 | > 7
C[C@@H]1CN(CC(=O)Nc2ccc3c(c2)Cc2cccc(-c4cc(=O)cc(N5CCOCC5)o4)c2S3)C[C@H](C)O1 | > 7 | > 7 | > 7 | > 7
CN1CCN(c2cccc(Nc3nc4c(-c5ccc(S(C)(=O)=O)cc5)cccn4n3)c2)CC1 | > 7 | > 7 | > 7 | > 7
Cn1cc(-c2ccc3ncc(Cc4ccc5ncccc5c4)n3n2)cn1 | > 7 | > 7 | > 7 | > 7
C[S+]([O-])c1ccc(-c2nc(-c3ccc(F)cc3)c(-c3ccncc3)[nH]2)cc1 (configuration not stated) | > 7 | > 7 | > 7 | > 7
Cc1cc(C)c(/C=C2\C(=O)Nc3ccccc32)[nH]1 [Semaxanib (SU5416)] | 5 | > 7 | > 7 | > 7
COc1ccc(C(=O)Nc2sc3c(c2C(N)=O)CCCC3)cc1OC | > 7 | > 7 | > 7 | > 7
CN1CCN(Cc2ccc(-c3cnc4[nH]cc(-c5ccc6[nH]ccc6c5)c4c3)cc2)CC1 | 2.5 | 1 | 0.5 | 2
N=C(N)NC(=N)NCCc1ccccc1 [Phenformin HCl] | 6.5 | 6.5 | > 7 | > 7
Cc1[nH]nc2ccc(-c3cncc(OC[C@@H](N)Cc4ccccc4)c3)cc12 | 1 | 2 | 4.5 | > 7
Cc1ncc(-c2ccnc(Nc3ccc(S(C)(=O)=O)cc3)n2)n1C(C)C | 6.5 | 3.5 | 6 | > 7
N[C@@H]1CCCN(c2c(/C=C3\SC(=O)NC3=O)cccc2-c2ccccc2)C1 | 5 | > 7 | > 7 | > 7
CC(C)[C@H](CO)Nc1nc(Nc2cccc(Cl)c2)c2ncn(C(C)C)c2n1 [Purvalanol A] | > 7 | > 7 | > 7 | > 7
COc1cc2ncc(-c3ccccc3)nc2cc1OC [Tyrphostin AG 1296] | > 7 | > 7 | > 7 | > 7
C=CC(=O)Nc1cccc(Nc2nc(Nc3ccc(N4CCN(C(C)=O)CC4)cc3OC)ncc2C(F)(F)F)c1 [Rociletinib (CO-1686, AVL-301)] | > 7 | > 7 | > 7 | > 7
Cn1cnc2c(F)c(Nc3ccc(Br)cc3F)c(C(=O)NOCCO)cc21 | > 7 | > 7 | > 7 | > 7
O=C1NC(=O)/C(=C/c2cccc(C(F)(F)F)c2)S1 | > 7 | > 7 | > 7 | > 7
C=CC(=O)Nc1cccc(Nc2nc(Nc3ccc(NC4CN(CCF)C4)cc3OC)ncc2C(F)(F)F)c1 | 3 | 2 | 5.5 | > 7
CN1CCCN(C(=O)c2cccc(-c3ccc(/C=C4/C(=O)Nc5ccc(Cl)cc54)o3)c2)CC1 | 0.5 | 0.5 | 0 | 0.5
CC1COCCN1c1cc(C2(S(C)(=O)=O)CC2)nc(-c2cccc3[nH]ccc23)n1 (configuration not stated) | > 7 | > 7 | > 7 | > 7
CCCCCCCCc1ccc(CCC(N)(CO)CO)cc1 [Fingolimod (FTY720) HCl] | 2 | 1 | 2 | 1
Cc1cc(Nc2cc(N3CCN(C)CC3)nc(/C=C/c3ccccc3)n2)n[nH]1 | 4 | 4.5 | 4.5 | 6.5
Cc1ccccc1CN1C2=NCCN2C(=O)C2=C1CCN(Cc1ccccc1)C2 [TIC10 Analogue] | > 7 | > 7 | > 7 | > 7
CO[C@H]1C[C@@H]2CC[C@@H](C)[C@@](O)(O2)C(=O)C(=O)N2CCCC[C@H]2C(=O)O[C@H]([C@H](C)C[C@@H]2CC[C@@H](O)[C@H](OC)C2)CC(=O)[C@H](C)/C=C(\C)[C@@H](O)[C@@H](OC)C(=O)[C@H](C)C[C@H](C)/C=C/C=C/C=C/1C [Rapamycin (Sirolimus)] | 3 | > 7 | > 7 | > 7
Cc1ccc(S(=O)(=O)C=CC#N)cc1 | 1 | 3 | 3 | 1
COc1cc2ncnc(Nc3ccc(F)c(Cl)c3)c2cc1NC(=O)/C=C/CN1CCCCC1 | 3 | 3 | 3.5 | > 7
CCOC(=O)c1cnc2ccc(-c3cncc(NS(=O)(=O)c4ccccc4)c3)cn12 | 0 | 5 | > 7 | 4
